We go through five molecules from article PMC5719087.

Results are given in words; binding and its absence hold for the method and conditions named. In cells and extracts the contact can be indirect. Some entries that bind do so weakly or less than the wild type.

Experiment in all cases: split reporter; BiFC with pYFN43 and pYFC43 fusions co-infiltrated (with p19) into N. benthamiana abaxial leaf cells by A. tumefaciens; confocal microscopy three days after infiltration
The target of assay [1] is T1, Arabidopsis thaliana dehydrin AtCOR47 (Arabidopsis thaliana) (UniProt P31168).
T1 sequence: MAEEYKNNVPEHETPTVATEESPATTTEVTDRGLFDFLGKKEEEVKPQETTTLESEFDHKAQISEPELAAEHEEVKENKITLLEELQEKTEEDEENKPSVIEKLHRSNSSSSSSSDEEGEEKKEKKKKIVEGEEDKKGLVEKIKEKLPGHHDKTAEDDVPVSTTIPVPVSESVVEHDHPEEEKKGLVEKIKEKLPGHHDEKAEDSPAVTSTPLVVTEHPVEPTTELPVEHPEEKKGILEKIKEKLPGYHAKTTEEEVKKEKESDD

Assay [2] deals with T2, Arabidopsis thaliana dehydrin AtERD10 (Arabidopsis thaliana) (UniProt P42759).
T2 sequence: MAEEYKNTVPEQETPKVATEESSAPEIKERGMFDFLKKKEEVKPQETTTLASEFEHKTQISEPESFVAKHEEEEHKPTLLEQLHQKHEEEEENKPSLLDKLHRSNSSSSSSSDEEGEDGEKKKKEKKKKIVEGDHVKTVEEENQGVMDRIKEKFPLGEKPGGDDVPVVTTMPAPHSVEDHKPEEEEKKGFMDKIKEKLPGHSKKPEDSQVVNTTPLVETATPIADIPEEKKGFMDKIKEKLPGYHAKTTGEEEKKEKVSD

The target in assay [3] is T3, Arabidopsis thaliana dehydrin AtRAB18 (Arabidopsis thaliana) (UniProt P30185).
T3 sequence: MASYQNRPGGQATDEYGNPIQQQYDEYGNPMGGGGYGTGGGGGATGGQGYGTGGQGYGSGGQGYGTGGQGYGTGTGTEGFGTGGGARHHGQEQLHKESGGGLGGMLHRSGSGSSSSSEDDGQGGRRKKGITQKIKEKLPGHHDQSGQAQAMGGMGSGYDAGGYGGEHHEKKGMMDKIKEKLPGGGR

Assay [4] concerns the target T4, AKINβ2 kinase subunit from Arabidopsis (Arabidopsis) (UniProt Q9SCY5).
T4 sequence: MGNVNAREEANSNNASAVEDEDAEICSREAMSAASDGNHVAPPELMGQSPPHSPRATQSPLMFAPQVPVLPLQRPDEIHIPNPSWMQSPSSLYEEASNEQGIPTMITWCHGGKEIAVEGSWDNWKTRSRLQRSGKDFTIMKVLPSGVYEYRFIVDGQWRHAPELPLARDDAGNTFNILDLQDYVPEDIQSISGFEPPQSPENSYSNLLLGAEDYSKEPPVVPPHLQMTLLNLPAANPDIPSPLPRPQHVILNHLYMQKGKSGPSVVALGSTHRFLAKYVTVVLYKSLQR

B1: Arabidopsis thaliana dehydrin AtRAB18 (protein, UniProt P30185 1-186)
chain: MASYQNRPGGQATDEYGNPIQQQYDEYGNPMGGGGYGTGGGGGATGGQGYGTGGQGYGSGGQGYGTGGQGYGTGTGTEGFGTGGGARHHGQEQLHKESGGGLGGMLHRSGSGSSSSSEDDGQGGRRKKGITQKIKEKLPGHHDQSGQAQAMGGMGSGYDAGGYGGEHHEKKGMMDKIKEKLPGGGR
B1: the binding entry in assay [1], in assay [2] and in assay [3] was “binds” each time.

B2: AKIN10 kinase subunit from Arabidopsis (protein, UniProt Q38997 1-512)
chain: MDGSGTGSRSGVESILPNYKLGRTLGIGSFGRVKIAEHALTGHKVAIKILNRRKIKNMEMEEKVRREIKILRLFMHPHIIRLYEVIETPTDIYLVMEYVNSGELFDYIVEKGRLQEDEARNFFQQIISGVEYCHRNMVVHRDLKPENLLLDSKCNVKIADFGLSNIMRDGHFLKTSCGSPNYAAPEVISGKLYAGPEVDVWSCGVILYALLCGTLPFDDENIPNLFKKIKGGIYTLPSHLSPGARDLIPRMLVVDPMKRVTIPEIRQHPWFQAHLPRYLAVPPPDTVQQAKKIDEEILQEVINMGFDRNHLIESLRNRTQNDGTVTYYLILDNRFRASSGYLGAEFQETMEGTPRMHPAESVASPVSHRLPGLMEYQGVGLRSQYPVERKWALGLQSRAHPREIMTEVLKALQDLNVCWKKIGHYNMKCRWVPNSSADGMLSNSMHDNNYFGDESSIIENEAAVKSPNVVKFEIQLYKTRDDKYLLDLQRVQGPQFLFLDLCAAFLAQLRVL
Take B2: the binding result is listed as “binds” in assay [4], “no binding” in assay [1], “no binding” in assay [2] and “no binding” in assay [3].

B3: Arabidopsis thaliana dehydrin AtCOR47 (protein, UniProt P31168 1-265)
chain: MAEEYKNNVPEHETPTVATEESPATTTEVTDRGLFDFLGKKEEEVKPQETTTLESEFDHKAQISEPELAAEHEEVKENKITLLEELQEKTEEDEENKPSVIEKLHRSNSSSSSSSDEEGEEKKEKKKKIVEGEEDKKGLVEKIKEKLPGHHDKTAEDDVPVSTTIPVPVSESVVEHDHPEEEKKGLVEKIKEKLPGHHDEKAEDSPAVTSTPLVVTEHPVEPTTELPVEHPEEKKGILEKIKEKLPGYHAKTTEEEVKKEKESDD
On to B3, for which the binding result in assay [1], in assay [2] and in assay [3] was “binds” each time.

B4: Arabidopsis thaliana dehydrin AtERD10 (protein, UniProt P42759 1-260)
chain: MAEEYKNTVPEQETPKVATEESSAPEIKERGMFDFLKKKEEVKPQETTTLASEFEHKTQISEPESFVAKHEEEEHKPTLLEQLHQKHEEEEENKPSLLDKLHRSNSSSSSSSDEEGEDGEKKKKEKKKKIVEGDHVKTVEEENQGVMDRIKEKFPLGEKPGGDDVPVVTTMPAPHSVEDHKPEEEEKKGFMDKIKEKLPGHSKKPEDSQVVNTTPLVETATPIADIPEEKKGFMDKIKEKLPGYHAKTTGEEEKKEKVSD
On to B4, for which the binding result in assay [1], in assay [2] and in assay [3] was “binds” each time.

B5: AKINβ2 kinase subunit from Arabidopsis (protein, UniProt Q9SCY5 1-289)
chain: MGNVNAREEANSNNASAVEDEDAEICSREAMSAASDGNHVAPPELMGQSPPHSPRATQSPLMFAPQVPVLPLQRPDEIHIPNPSWMQSPSSLYEEASNEQGIPTMITWCHGGKEIAVEGSWDNWKTRSRLQRSGKDFTIMKVLPSGVYEYRFIVDGQWRHAPELPLARDDAGNTFNILDLQDYVPEDIQSISGFEPPQSPENSYSNLLLGAEDYSKEPPVVPPHLQMTLLNLPAANPDIPSPLPRPQHVILNHLYMQKGKSGPSVVALGSTHRFLAKYVTVVLYKSLQR
Turning to B5, the binding result in assay [1], in assay [2] and in assay [3] was “no binding” each time.
